Results as given in ChEMBL document CHEMBL1201862, “PubChem BioAssay data set” (2004).

Tested on: NCI-H322M
Assay: NCI-60 cell line screen, 48 h

Structure (SMILES)	GI50
CN(C)CCNC(=O)c1ccc(NCCCN(C)CCCNc2ccc3c(=O)n(CCN(C)C)c(=O)n4c5ccccc5c(=O)c2c34)c2c(O)c3ccccc3nc12	active: < 0.01 µM
O=C(O)C1(C(=O)O)CCN(S(=O)(=O)c2ccccc2)CC1	inactive: > 100 µM
Oc1cc(-c2ccccc2Cl)nc2cc3c(cc12)OCO3	active: 0.117 µM
Brc1ccc2c(-c3nc(-c4c[nH]c5ccccc45)cs3)c[nH]c2c1	inactive: > 43.5 µM
O=C1CC(c2cccc(Cl)c2)Nc2ccc(N3CCCC3)cc21 (stereo not given)	active: 0.957 µM
NS(=O)(=O)c1ccc(NC2(C(=O)O)CCCC2)cc1	inactive: > 100 µM
NC(Cc1ccccc1)c1nn[nH]n1 (stereo not given)	inactive: > 100 µM
Oc1ccc(Cn2c(-c3ccc(O)cc3)nc3ccccc32)cc1	inactive: > 100 µM
OC(COc1ccccc1)CN1CCCCC1 (stereo not given)	inactive: > 100 µM
Cc1ccc(S(=O)(=O)N2CCSCCSCCSCCSCC2)cc1	inactive: 53.5 µM
ON=C(CC(O)(C(F)(F)Cl)C(F)(F)Cl)CC(O)(C(F)(F)Cl)C(F)(F)Cl	inactive: 2.07 µM
O=C(NC(=S)Nc1ccc(Br)cc1)c1ccc2c(c1)Sc1ccccc1S2	inactive: 20.8 µM
CN1C(=O)C(C(N)=O)C2CC1(C)Oc1ccccc12 (stereo not given)	inactive: > 100 µM
CNS(=O)(=O)NN(C)S(=O)(=O)c1ccc2ccccc2c1	inactive: > 100 µM
CC[N+](C)(CC)CCN1C(=O)c2ccccc2S1(=O)=O	inactive: > 100 µM
COc1ccc(NC(=O)CC(=O)NNC(Sc2ccccc2)c2cc(/N=N/c3ccc(Br)cc3)ccc2O)cc1 (stereo not given)	inactive: > 10 µM
COc1cc(C2S/C(=C/c3ccccc3)C(=O)N2c2ccc(Cl)c(Cl)c2)cc(OC)c1OC (stereo not given)	inactive: 32.3 µM
CCOC(=O)C(Cl)(NC(=O)NC(Cl)(C(=O)OCC)C(F)(F)F)C(F)(F)F (stereo not given)	inactive: > 100 µM
CC(C)(C)OC(=O)NCCc1ccc(N)cc1	inactive: > 100 µM
C=C(C)C1CCC2=CC(CC3(C)OC3C3=CC(C(=O)OC)=C(C1)O3)OC2=O (stereo not given)	inactive: > 100 µM
COC(=O)C1c2cc3c(cc2C(OC2OC(C)C(OC)C(C)(OC)C2OC)CC1(C)O)C(=O)c1c(O)cc2c(c1C3=O)OC1OC2(C)C(O)C([N+](C)(C)[O-])C1O (stereo not given)	active: 0.137 µM
CCCCSC1=N/C(=C\c2ccc(N(C)C)cc2)C(NN)=N1	inactive: > 100 µM
CCOC(=O)C1(C#N)C(c2ccccc2)CC(O)(c2ccc(OC)cc2)C(C(=O)c2ccc(OC)cc2)C1c1ccccc1 (stereo not given)	inactive: > 100 µM

Structure (SMILES)	GI50
COC1=CC(=O)C2(C=C1OC)OC[C@H]1Oc3c(ccc4c3C=CC(C)(C)O4)C(=O)[C@H]12 (stereo not given in full)	inactive: 95.7 µM
COC(=O)CC1NC(=O)C1C1(C)OCCO1 (stereo not given)	inactive: > 100 µM
CCOC(=O)N1c2ccccc2C(C)=CC(C)C1C (stereo not given)	inactive: 21.3 µM
Cc1ccc(NC(=S)N/N=C(/c2ccccc2)c2ccccn2)cc1	active: < 0.01 µM
CC(C)C(=O)/C=C/c1c(Cl)cccc1Cl	inactive: 5.37 µM
N#CCCN(CCC#N)CCN(CCN(CCC#N)CCC#N)CCN(CCC#N)CCC#N	inactive: > 100 µM
CC(NC(=O)C(NC(=O)C(NC(=O)C(F)(F)F)C(C)C)C(C)C)C(=O)Oc1c(Cl)c(Cl)c(Cl)c(Cl)c1Cl (stereo not given)	inactive: > 100 µM
C[C@]1(O)CC(=O)c2c(c(-c3ccc4cc5c(c(O)c4c3O)C(=O)C[C@@](C)(O)C5)c3cccc(O)c3c2O)C1	inactive: 10.4 µM
CCOC(=O)CNc1nnnn1C1OC(CO)C(O)C1O (stereo not given)	inactive: > 100 µM
COC(=O)C(=O)C(C#N)c1cccc(Cl)c1 (stereo not given)	inactive: > 100 µM
COC1/C=C/C(C)C(C(C)C(OC)C(C)CCC(=O)C(C)C(CCC(=O)O)OC)OC(=O)/C=C/C=C(\C)CC(OC)CC2=CC(=O)O[C@@H](C(C)C(OC)CC(OC)/C=C/C(C)C(OC)C1)[C@H]2O (stereo not given in full)	inactive: 4.33 µM
CCCCC1=CSC(c2ccccc2)=C(c2ccccc2)S1	inactive: > 100 µM
C=CCONC(=O)c1ccc(Cl)cc1	inactive: > 100 µM
CCOc1ccc(NC(=O)/C(CC(=O)c2c[n+]([O-])c3ccccc3[n+]2[O-])=N\OCCCc2ccccc2)cc1	inactive: > 100 µM
Cc1cn(C2CC(O)C(CO[Si](C)(C)C(C)(C)C)OC2OC(C)C)c(=O)[nH]c1=O (stereo not given)	inactive: 92 µM
O=C(NCCCNCCCCNCCCNC(=O)c1cc(-c2ccccc2)nc2ccccc12)c1cc(-c2ccccc2)nc2ccccc12	inactive: 3.61 µM
COc1cccc(NC(=O)CSc2nnc(-c3ccc(NC(C)=O)cc3)o2)c1	inactive: > 100 µM
CC1(C)N=C(Oc2ccccc2)n2nccc2N1	inactive: > 100 µM
CC(C)(C)[Si](C)(C)OCC1OC(n2cnc3c(N)ncnc32)CC1O (stereo not given)	inactive: > 100 µM
C#CC(O)(c1nc2ccccc2s1)c1nc2ccccc2s1	inactive: 27.1 µM
CC(=O)NCCc1c(-c2[nH]c3ccccc3c2CCNC(C)=O)[nH]c2ccccc12	inactive: > 100 µM
Cc1ccc2c(c1)/C(=N/Nc1ccccc1[N+](=O)[O-])C(=O)N2	inactive: > 100 µM

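1) Cells in 96-well plates. 2) Compound, 48 h, 5 concentrations. 3) Linear interpolation between surrounding doses. 4) Unreached endpoint = highest concentration. The concentration for 50% growth inhibition is given as GI50.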 Calls of active or inactive are those of the source. Cut-off read from the data, not from the text of the source: active = GI50 up to about 1.1 µM and inactive = higher.
